Results: PubChem BioAssay AID488969 (Vanderbilt High Throughput Screening Facility, 2010)
In all, about 110,000 compounds were measured (“z-score”: median about -0.1, highest 2% from about 2 on). The list shows a part of the results.

These compounds were tested against Metabotropic glutamate receptor 8 (Rattus norvegicus) (UniProt P70579) (assay: rat mGluR8 modulators via GIRK flux, primary screen, cell-based, thallium flux, HTS (AID 488969)). Settings: HEK293 rat mGluR8, GIRK (G protein-gated inwardly rectifying potassium channel) thallium flux, FluoZin2; at 10 µM; stronger effect = higher value; submaximal glutamate (EC20) added with thallium.
UniProt P70579, sequence (P70579 whole entry, looked up): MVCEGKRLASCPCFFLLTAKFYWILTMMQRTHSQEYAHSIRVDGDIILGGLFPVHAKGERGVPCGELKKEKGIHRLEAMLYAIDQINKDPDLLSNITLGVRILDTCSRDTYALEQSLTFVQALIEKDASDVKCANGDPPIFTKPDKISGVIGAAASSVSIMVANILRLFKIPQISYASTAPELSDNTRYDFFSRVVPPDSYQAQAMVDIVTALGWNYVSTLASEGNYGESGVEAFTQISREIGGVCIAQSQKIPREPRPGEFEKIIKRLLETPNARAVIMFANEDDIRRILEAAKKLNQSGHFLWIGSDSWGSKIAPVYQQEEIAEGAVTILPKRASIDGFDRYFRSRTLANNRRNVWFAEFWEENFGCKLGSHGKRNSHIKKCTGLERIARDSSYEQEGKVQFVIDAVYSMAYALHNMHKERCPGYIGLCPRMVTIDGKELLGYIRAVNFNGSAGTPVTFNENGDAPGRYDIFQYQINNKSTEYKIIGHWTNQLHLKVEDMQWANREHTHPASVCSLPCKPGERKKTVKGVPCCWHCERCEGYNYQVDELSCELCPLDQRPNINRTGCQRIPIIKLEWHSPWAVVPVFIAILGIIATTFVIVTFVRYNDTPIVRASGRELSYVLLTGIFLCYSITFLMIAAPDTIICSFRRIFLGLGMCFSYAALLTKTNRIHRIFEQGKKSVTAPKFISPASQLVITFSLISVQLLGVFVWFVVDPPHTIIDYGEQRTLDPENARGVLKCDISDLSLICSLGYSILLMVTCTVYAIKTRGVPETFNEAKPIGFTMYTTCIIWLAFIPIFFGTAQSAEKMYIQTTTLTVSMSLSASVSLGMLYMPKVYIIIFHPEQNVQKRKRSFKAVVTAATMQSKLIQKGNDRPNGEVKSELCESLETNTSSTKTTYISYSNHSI

| SMILES | z-score |
| --- | --- |
| CSc1cccc(NC(=O)CCCOc2ccc(Cl)cc2C)c1 | -0.0465 |
| O=C(Nc1ccc(N2CCN(C(=O)c3cccs3)CC2)c(Cl)c1)c1ccco1 | 0.00632 |
| O=C(N/N=C/C=C\c1ccccc1[N+](=O)[O-])c1cccs1 | -0.399 |
| O=[N+]([O-])c1ccc2nccn2c1 | 0.437 |
| COc1ccc(-n2c(C)cc(C(=O)CN3C(=O)c4ccccc4C3=O)c2C)cc1 | 0.595 |
| Cc1onc(-c2ccccc2)c1C(=O)Nc1ccccc1C#N | 0.156 |
| O=C(O)C1CCCN(S(=O)(=O)c2cccs2)C1 (configuration not stated) | -0.00858 |
| CCCCc1nc2ccccc2n1CC(=O)NN | -0.259 |
| Cn1cnnc1SCC(=O)c1ccc(OC(F)F)cc1 | 0.0243 |
| COc1ccc(-c2nc(C#N)c(NCCCn3ccnc3)o2)cc1OC | -0.216 |
| O=C(COC(=O)c1ccccc1Nc1ccccc1)c1ccccc1 | 0.203 |
| C=CCOc1ccc(Cl)cc1C(=O)O | 0.196 |
| O=C(NCCN1CCCCC1)Nc1ccc(F)c(Cl)c1 | 0.39 |
| COc1ccc(-c2nnc3sc(COc4ccc(C)cc4)nn23)cc1 | -0.0659 |
| O=C(CC1C(=O)N(c2ccc(F)cc2)C(=O)N1Cc1ccccn1)Nc1ccccc1 (configuration not stated) | 0.264 |
| Cc1ccc(C(C)C)c(OCC(=O)Nn2c(=O)[nH]c3ccccc3c2=O)c1 | 0.279 |

| SMILES | z-score |
| --- | --- |
| Cc1ccc(NC(=O)COC(=O)CCNS(=O)(=O)c2ccc(C)c(C)c2)cc1 | -0.0448 |
| COCCN=c1scc(-c2cccs2)n1/N=C/c1ccc(O)c(O)c1O | 2.93 |
| Cc1cc(NC(=O)CSc2cn(CCNC(=O)c3ccc(F)cc3)c3ccccc23)no1 | -0.942 |
| CC(C)N1CCN(c2ccncc2S(=O)(=O)N2CCOCC2)CC1 | -0.0279 |
| Cc1ccc(CSc2nc3c(c(N(C)C)n2)CCCC3)cc1 | -0.259 |
| CCOc1cc(CO)c(Br)cc1OCC(=O)O | -0.27 |
| O=C1Nc2ccc(F)cc2C12Nc1ccccc1-c1nnc(SCc3ccccc3Cl)nc1O2 (configuration not stated) | -0.267 |
| Cc1nc(SCC(=O)Nc2c(C)n(C)n(-c3ccccc3)c2=O)n[nH]1 | -0.356 |
| CCCn1nnc(NC(=O)COc2cc(C)ccc2C(C)C)n1 | 2.14 |
| CCOC(=O)COc1c(Br)cc(C2NC(=O)NC(C)=C2C(C)=O)cc1OC (configuration not stated) | 1.29 |
| CCOC(=O)c1c(C)c(C(=O)NCCN2CCOCC2)c(C)n1CC | -0.0665 |
| CSc1ccccc1-c1nnc(-c2ccc(C)cc2)o1 | -0.132 |
| COc1ccc(N=Cc2ccc[nH]2)cc1 | 0.124 |
| COc1ccc(S(=O)(=O)N(C)C2CCS(=O)(=O)C2)cc1OC (configuration not stated) | -0.098 |
| COc1ccc2c(c1)N(C(=O)CSc1n[nH]c(C)n1)C(C)(C)C=C2C | -0.194 |
| Cc1ccc(N(C(=O)Cn2nnc(-c3ccc(F)cc3)n2)C(CC(C)C)C(=O)NCC2CCCO2)cc1 (configuration not stated) | -0.262 |
